Test results as given in patent publication US20100086997A1 (published 2010).

What was measured:
[1] = molecular target: T1, Fc-fused recombinant human TrkA (human, UniProt P04629-2 33-407, limits assumed); assay: SPR (Biacore 3000), dissociation half-life
T1 construct: Bought from R&D Systems or made in-house; not shown: Fc part
Protocol: (§1) A standard amine-coupling protocol was used in HBS-EP running buffer at 5 μl/min and involved three steps. […]. First, flow cells were activated with a 7-minute injection of a freshly prepared mixture of 200 mM EDC in 50 mM NHS; this step converted the chip's carboxylic acid groups to reactive esters. Next, receptors were diluted to ˜10 μg/mL in 10 mM sodium acetate buffer at pH 4.5 and coupled to the chip until the desired level had been reached. Finally, excess reactive esters were blocked with a 7-minute injection of 1M sodium ethanolamine-HCl (pH 8.5).
(§2) The Fab fragment of antibody 200.38B8 (38B8) was diluted from 0.7-480 nM in 3-fold increments. Samples were injected for 30 seconds at 100 μl/min allowing dissociation times of up to 10 mins. After each binding cycle, receptor surfaces were regenerated with a mildly acidic cocktail (10 mM glycine-HCl (pH 4.0), 500 mM NaCl, and 20 mM EDTA). […] Kinetic rate constants (kon and koff) were determined by fitting the binding data globally to a mass transport model and binding affinities were calculated from their ratio, KD=koff/kon.

[2] = molecular target: T2, Fc-fused recombinant human TrkC (human, UniProt Q16288 32-429); assay: SPR (Biacore 3000), Fc-fused receptor amine-coupled to CM5 chip, ligand in solution, 25 C
T2 construct: Bought from R&D Systems or made in-house; not shown: Fc part
Protocol: as §1, §2

[3] = molecular target: T3, human TrkB-Fc fusion protein (human, UniProt Q16620 fragment); assay: as above
T3 construct: Bought from R&D Systems or made in-house; also called HuTrkB; Fc-fused recombinant human TrkB; not shown: Fc part
T3 sequence (Q16620 32-430 limits assumed): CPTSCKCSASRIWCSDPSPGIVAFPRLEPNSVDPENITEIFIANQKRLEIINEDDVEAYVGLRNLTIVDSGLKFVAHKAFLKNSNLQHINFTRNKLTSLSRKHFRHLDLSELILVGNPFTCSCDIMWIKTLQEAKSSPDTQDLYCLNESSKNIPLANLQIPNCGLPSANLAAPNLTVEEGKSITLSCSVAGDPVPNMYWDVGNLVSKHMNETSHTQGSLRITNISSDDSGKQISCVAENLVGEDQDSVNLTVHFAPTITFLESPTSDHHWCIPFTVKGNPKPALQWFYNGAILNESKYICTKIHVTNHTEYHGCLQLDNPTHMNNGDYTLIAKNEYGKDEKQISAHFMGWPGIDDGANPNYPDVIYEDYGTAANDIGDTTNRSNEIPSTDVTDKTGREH
Protocol: as §1, §2

[4] = molecular target: T1, Fc-fused recombinant human TrkA; assay: as above
T1 sequence (P04629 other isoform, or with tags, fused parts or gaps limits assumed): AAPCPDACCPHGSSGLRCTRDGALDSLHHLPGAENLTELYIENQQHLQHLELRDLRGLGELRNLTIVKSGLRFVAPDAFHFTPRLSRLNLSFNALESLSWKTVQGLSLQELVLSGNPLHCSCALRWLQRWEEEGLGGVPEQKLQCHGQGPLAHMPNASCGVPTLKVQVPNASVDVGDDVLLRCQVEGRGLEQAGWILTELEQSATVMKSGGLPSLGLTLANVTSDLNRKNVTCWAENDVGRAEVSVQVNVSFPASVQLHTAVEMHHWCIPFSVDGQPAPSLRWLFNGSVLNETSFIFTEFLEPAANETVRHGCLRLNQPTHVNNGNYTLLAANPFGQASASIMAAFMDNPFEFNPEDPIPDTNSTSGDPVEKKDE
Protocol: as §1, §2

B1: ProNGF (ligand)
chain: not shown
T1/2 [1]: > 1 h
binding result [2]: no binding
binding result [3]: no binding
Kd [4]: 0.02 nM
koff [4]: 1.41e-05 s⁻¹
kon [4]: 716000 M⁻¹ s⁻¹
